# Laboratory results from the supplement of paper PMC5499739.
# The full ranking holds about 16,000 sequences; the median of “Z-score” is about -0.37, and the highest 2% start at about 3.1. Some of the results follow.
# System: RBM10 RRM1-ZnF-RRM2 (GST-tagged construct)
# Assay: RNAcompete 7-mer binding Z-score; higher = stronger binding preference
# In short: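 GST-tagged RBM10 constructs (20 pmol) and a designed pool of 241 399 RNAs up to 41 nt (1.5 nmol) were allowed to bind for 30 min at 4°C in 1 ml Hepes pH 7.8 buffer with glutathione Sepharose beads. After four 2-min washes at 4°C, bound RNA was identified by microarray hybridisation. Enrichment was scored per heptamer motif as a one-sided Z-score across the probes containing it.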
row,Sequence,RNAcompete 7-mer binding Z-score
1,CCAUGUC,-0.828
2,UAUAGCU,-0.592
3,AUUUCCG,-0.737
4,AUAAUCA,-0.195
5,GCUAGCC,-0.675
6,CGGGAUU,1.56
7,UAAACUA,-0.315
8,ACUGGCU,-0.337
9,GAGAUCA,-0.114
10,CCCUGGC,-0.435
11,AACCCCC,-0.358
12,GGGCGAC,1.94
13,UCGACCG,-0.566
14,GCGGGAG,2.64
15,UCGGCCU,-0.712
16,CUUUGCC,-1
17,AUGGUUA,2.06
18,UGUUGAC,-0.457
19,CAGCAGG,1.14
20,CUACAUC,-0.712
21,AUGCGUU,-0.209
22,CGGGGCA,2.78
23,AGACCCU,-1.19

row,Sequence,RNAcompete 7-mer binding Z-score
1,GAUUGGA,2.28
2,CGUGUGA,0.0859
3,CAUCAGU,-0.216
4,GUGAACG,1.21
5,AUGUGGU,1.14
6,CCGCGUA,-0.613
7,ACAGAAG,0.723
8,AUUUGUU,-0.657
9,GACACUC,-0.792
10,CCUCAUU,-0.912
11,CUGCGUG,-0.304
12,CCUCUUC,-0.795
13,GAGACGA,0.731
14,AGAGACU,-0.537
15,UACUGCC,-0.704
16,GUUGUAU,0.0204
17,AUAUGUU,-0.471
18,UUUCCGC,-0.744
19,UUUAUAC,-0.734
20,CCUUAUC,-0.89
21,UUCACUC,-0.832
22,AUUCGAU,-0.555
23,UAAGUAU,-0.209

row,Sequence,RNAcompete 7-mer binding Z-score
1,UCUGCAU,-0.857
2,GCCUAUG,-0.377
3,AACCGCA,-0.683
4,GACAUGU,-0.111
5,GCGGCAC,0.592
6,GCACCUG,-0.621
7,UGUGAAC,0.261
8,GUACAUA,-0.114
9,CAGUCCC,-0.708
10,AACCGUU,-0.828
11,ACGACAA,-0.18
12,UGGUGGC,1.72
13,AGAUUAC,-0.446
14,UAUUUGA,-0.347
15,GCGCGGC,0.811
16,GAUCCAU,-0.832
17,CUUCCUU,-0.759
18,AGUGCGC,0.297
19,UGCGCCC,-0.584
20,GCCCAAC,-0.683
21,UAUGUAG,0.221
22,UGAGAUG,1.02
23,CGUACAA,-0.26

row,Sequence,RNAcompete 7-mer binding Z-score
1,UUGCAUC,-0.712
2,CCUCUCG,-0.814
3,AGAGAUA,0.461
4,GCAAGUA,0.0167
5,ACUCAUG,-0.65
6,GAAGAUC,-0.195
7,CCGGCAG,-0.0306
8,GUCGUAA,0.0167
9,AUAACUA,-0.595
10,AAUGCCA,-0.293
11,CAACAGC,-0.238
12,UACGUUU,-0.763
13,GAAGACG,1.14
14,UGGAUAG,2.3
15,AAUGACG,0.243
16,GCCUUUG,-0.755
17,UAGGUCA,0.403
18,GGUCGCA,0.64
19,AAUGGAC,2.1
20,CUCGGUC,-0.584
21,AGACUCU,-1.03
22,GUUACGA,0.272
23,ACGUCCU,-0.876

row,Sequence,RNAcompete 7-mer binding Z-score
1,UGGUUAU,0.519
2,AUAAAGC,-0.362
3,CACGAGC,-0.147
4,CGACCGA,-0.493
5,CCGGUGC,-0.136
6,AAAGUAG,0.749
7,CAAUAGC,-0.209
8,UUCGCCA,-0.803
9,GCCGUCG,-0.209
10,CAAUCAC,-0.468
11,ACUUCGC,-0.897
12,CAACCAA,-0.358
13,CGCGCCA,-0.457
14,UGCACCA,-0.581
15,CUGUCUG,-0.806
16,GUUUUAC,-0.57
17,CGGUUAG,0.691
18,AGAGCCG,-0.675
19,CCUAGGC,-0.664
20,AUCAGAC,-0.144
21,GUUCUUA,-0.675
22,CACAGCG,0.0131
23,UGGCUUA,-0.409

row,Sequence,RNAcompete 7-mer binding Z-score
1,GGCACAA,0.487
2,GGGCCAC,0.275
3,GCUUAAA,-0.628
4,CAACGCU,-0.661
5,AUGUUAA,-0.537
6,GCUGCGA,-0.307
7,CGAAUCU,-0.766
8,GACAUUU,-0.752
9,GGUCACU,-0.027
10,AGUUCAA,-0.311
11,ACAUAUG,0.0058
12,GCACCCA,-0.664
13,UCCCUGU,-0.799
14,CCAUCUU,-0.967
15,AAUUAGG,1.46
16,GGAAUCU,-0.227
17,UAUUUAA,-0.584
18,ACGUUAC,-0.278
19,CGGUACG,0.545
20,UUGCACU,-0.635
21,CUGAGAA,-0.431
22,GAGGAAU,1.71
23,CUUCUAC,-0.894

row,Sequence,RNAcompete 7-mer binding Z-score
1,CUAAAGU,-0.588
2,UGGACCA,0.239
3,GGGUCUC,0.731
4,GGAGGCA,2.81
5,GGCCGGA,0.803
6,ACUUAAU,-0.854
7,AUAUUUU,-0.952
8,GCAGCCU,-0.551
9,GUCAGGA,0.884
10,GCCCUGC,-0.766
11,CUAUAAC,-0.723
12,ACUAGAG,-0.0634
13,AUGACAG,0.567
14,GGAGCCA,0.654
15,ACGGAGG,2.57
16,AUGGACA,2.24
17,GCCAUUC,-0.883
18,GCAGCUG,-0.133
19,CUCAGAG,-0.384
20,AUCUCAU,-0.799
21,CCUGGAC,-0.548
22,GUGUUGC,0.162
23,AUGGCGU,0.705

row,Sequence,RNAcompete 7-mer binding Z-score
1,CUGGUAA,0.0167
2,GUCGGAU,0.574
3,UUUUAUA,-0.715
4,ACCAGCA,-0.417
5,GGCAGUU,0.148
6,GGGGGUU,3.29
7,CUCCAGG,-0.439
8,AGCGGUA,1.25
9,AAUAAAU,-0.3
10,CUUUCUG,-0.839
11,GGGGGCA,2.33
12,UGCAACU,-0.439
13,UGACUCU,-0.606
14,GGACUAA,0.297
15,GGUACCG,0.672
16,AGCCUUA,-0.901
17,AUAAGAC,-0.0707
18,UGGUACC,0.417
19,GACUCCC,-0.752
20,GGAUCCU,-0.0816
21,GUGAUGG,2.56
22,CUCCAUG,-0.643
